Measurements taken from the GPR68 mutational scans of Howard et al. (2025).

B1: GPR68, Q15743 (parent)
chain: MGNITADNSSMSCTIDHTIHQTLAPVVYVTVLVVGFPANCLSLYFGYLQIKARNELGVYLCNLTVADLFYICSLPFWLQYVLQHDNWSHGDLSCQVCGILLYENIYISVGFLCCISVDRYLAVAHPFRFHQFRTLKAAVGVSVVIWAKELLTSIYFLMHEEVIEDENQHRVCFEHYPIQAWQRAINYYRFLVGFLFPICLLLASYQGILRAVRRSHGTQKSRKDQIQRLVLSTVVIFLACFLPYHVLLLVRSVWEASCDFAKGVFNAYHFSLLLTSFNCVADPVLYCFVSETTHRDLARLRGACLAFLTCSRTGRAREAYPLGAPEASGKSGAQGEEPELLTKLHPAFQTPNSPGSGGFPTGRLA

Experiments:
[1] = variants of: B1; test: cAMP reporter score (Enrich2 score, wild type = 0); higher = more signal; HEK293T, FACS bins
[2] = variants of: B1; test: surface expression score (Enrich2 score, wild type = 0); higher = more signal; HEK293T, FACS bins

Variant	cAMP reporter score ([1]; pH 5.5)	cAMP reporter score ([1]; pH 6)	cAMP reporter score ([1]; pH 6, modulator: ogerin)	cAMP reporter score ([1]; pH 6.5, modulator: ogerin)	surface expression score [2]
G2Q	0.697	0.262	0.754	0.308	0.783
G2R	0.968	0.248	0.985	0.307	0.771
G2S	0.254	-0.175	0.719	-0.393	-0.025
G2T	0.435	-0.357	-0.045	-0.025	-0.965
G2V	0.161	0.067	0.174	-0.049	0.043
G2W	0.544	0.311	0.337	0.422	0.433
G2Y	0.495	0.147	0.512	0.77	0.417
G2_I4del	0.492	0.322	0.427	0.34	-0.444
T5A	-0.083	-0.653	0.582	0.013	-0.301
T5C	0.101	-0.108	-0.719	0.226	-1.38
T5D	0.9	-0.77	0.827	0.339	-0.288
T5E	0.037	-0.195	-0.257	-0.272	-0.576
T5F	0.342	1.33	–	-0.359	-0.424
T5G	0.471	0.041	-0.094	-0.143	-0.748
T5H	-1.03	-1.09	-1.13	-0.921	-1.95
T5I	0.506	0.044	0.048	0.063	-1.04
T5K	-0.059	-0.722	-0.367	-0.702	-0.853
T5L	-0.502	-1.15	-1	-0.537	-1.43
T5M	-0.183	0.064	-0.556	-1.07	-1.25
T5N	-0.135	0.188	-1.01	-0.891	-1.23
T5P	-0.393	0.115	-0.32	0.3	0.261

Variant	cAMP reporter score ([1]; pH 5.5)	cAMP reporter score ([1]; pH 6)	cAMP reporter score ([1]; pH 6, modulator: ogerin)	cAMP reporter score ([1]; pH 6.5, modulator: ogerin)	surface expression score [2]
T5Q	0.619	0.094	0.918	0.682	–
T5R	1.17	0.687	1.44	0.11	-1.11
T5S	0.034	-0.346	0.187	0.478	-0.721
T5V	-0.297	-0.657	-1.28	-0.906	-1.33
T5W	-0.111	–	-0.456	-0.611	-1.34
T5Y	-0.681	0.136	-0.704	-0.436	-1.34
T5_A6insGSG	0.413	–	0.31	0.236	0.766
T5del	-0.205	1.03	-0.252	-0.255	-1.18
N8_S9insG	0.092	-0.335	0.104	-0.016	-0.07
S9A	-0.817	-1.06	-0.715	-0.663	-0.916
S9C	-0.252	-0.032	-0.099	0.499	0.231
S9D	-0.334	-0.143	-0.318	-0.007	0.165
S9E	-0.253	-0.444	-2.07	-0.827	-0.848
S9F	-0.299	-0.357	-0.615	-0.623	-0.72
S9G	0.369	0.949	0.739	0.381	0.781
S9H	-0.74	-0.861	-1.35	-1.7	-1.88
S9I	0.501	0.882	1.2	0.616	0.215
S9K	0.083	-0.362	0.18	-0.077	0.129
S9L	0.606	0.904	0.693	1.19	-0.549
S9M	0.17	-0.624	0.228	0.718	0.259
S9N	1.17	0.477	1.34	1.74	1.29

Variant	cAMP reporter score ([1]; pH 5.5)	cAMP reporter score ([1]; pH 6)	cAMP reporter score ([1]; pH 6, modulator: ogerin)	cAMP reporter score ([1]; pH 6.5, modulator: ogerin)	surface expression score [2]
S9P	0.43	–	–	-0.607	-0.296
S9Q	0.029	0.78	-0.68	0.31	-0.255
S9R	0.538	0.684	0.697	0.734	0.473
S9T	-0.601	-0.472	-1.09	-0.945	-0.855
S9V	0.409	0.142	0.542	0.059	0.321
S9W	-0.275	-0.317	-0.412	-0.554	-0.96
S9Y	0.821	1.13	0.698	1.33	0.525
M11_C13del	-0.88	-0.971	-1.36	-0.798	-1.72
S12A	0.353	0.028	0.323	0.176	0.408
S12C	-0.302	-1.17	-0.619	-0.482	-0.823
S12D	0.324	-0.852	0.16	-0.129	0.416
S12E	-0.425	-0.492	-0.287	-0.549	-0.344
S12F	0.663	1.73	1.28	2.14	1.12
S12G	0.409	0.137	0.203	-0.198	0.024
S12H	0.366	-0.128	0.54	0.394	0.675
S12I	0.328	–	0.776	0.376	0.652
S12K	-0.183	0.548	-0.053	0.628	1.06
S12L	-0.8	-1.19	-0.995	0.374	-1.02
S12M	1.87	2.72	1.86	2.63	1.61

Scores whose standard error is large were omitted. Not listed are two conditions whose scores span a narrow range. Read del as a deletion of the residues named and ins as an insertion between two positions. For some of these results: How much ogerin was present is not stated here.
